# Results as given in PubChem BioAssay AID720532 (National Center for Advancing Translational Sciences (NCATS), 2013).
# In all, about 18,000 compounds went through this assay and about 1,200 (6.7%) were called active. Another 16% or so got no clear call; they are omitted. The call rests on the fitted dose curve; tested in HEK293 cells. Not every entry of the source has a single result; some have several. This is not the full list of results. There may be further records. The values listed for one entry repeat one measurement in other runs, samples, wells, individuals or studies.
# Assay: qHTS for Inhibitors of binding or entry into cells for Marburg Virus
# Settings: Marburg virus pseudotype entry/binding inhibition, cell-based
# Potency means the concentration at half of the fitted maximal effect.
row,SMILES,Potency
1,COc1c(C)c2c(c(O)c1C/C=C(\C)CCC(=O)O)C(=O)OC2,"active: 398 nM, 1.41 µM, 1.26 µM, 891 nM [separate samples]"
